Test results reported in the supplement of paper PMC10126150.
Values marked as one replicate rest on one cluster of the flow cell; about a third of the high ones do not repeat.

Tested on: ATP
Assay: switch fluorescence ratio, 500 uM ATP over buffer (Cy3 cluster intensity, sum of 5 cycles each) (fold (ratio)); higher = stronger signal-on switching upon ATP binding; sequences stand for … in TCGTCGGCAGCGTCAGATGTGTATAAGAGACAGTTTTTTTTTTTTTTTTTTTTTTTTT…TC
Conditions: aptamer strand: ATP DNA aptamer (quencher-CACCTGGGGGAGTATTGCGGAGGAAGG + anchor), 100 nM annealed; ATP concentration: 500 uM; one replicate
Procedure, shortened: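 Exposure to 500 uM ATP lasted 15 min at 22 °C before imaging, and a selection-buffer image was taken beforehand, for Cy3-labelled switching-strand clusters on a modified Illumina MiSeq flow-cell annealed to 100 nM quencher-labelled ATP aptamer. Five buffer/ATP cycles were run with NaOH stripping and re-annealing between them. The fluorescence ratio per cluster is summed target-cycle over summed buffer-cycle Cy3 intensity, averaged per switch-domain sequence. Clusters outside 100-1000 RFU were excluded.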

Row | Sequence | switch fluorescence ratio
1 | CGTTTTGAAA | 1.22
2 | TGCCATAGGG | 1.01
3 | AATATTCTT | 1.02
4 | AATAGTTGCC | 1.01
5 | CACTGCGA | 1.51
6 | TTGCAGGAGA | 1.01
7 | GAAAGAGGTT | 0.972
8 | GTAAACCCCC | 1.3
9 | ATATTCCTGC | 0.976
10 | CATTCCGGTA | 1.28
11 | GACTTTGTGT | 1
12 | CGCTCTCTGT | 1.44
13 | CCAGCACAGT | 1.05
14 | ACGGACCCGT | 1.05
15 | CAGAAGCAGG | 1.17
16 | TTATACCAGG | 1.25
17 | CGATGCTAAT | 1.32
18 | AACAGCAGTG | 0.995
19 | ACGGAGTCGT | 1.02
20 | CTTTAACGTA | 1.08
21 | AGCTCGTCTT | 0.963
22 | ACCCTATGGG | 0.999
23 | GATTGCGGCG | 0.983

Row | Sequence | switch fluorescence ratio
24 | GGTTTTACAT | 1
25 | GGTTCGAGGG | 0.998
26 | AATTACGTAT | 1.13
27 | AGACCGGGTG | 1.19
28 | TACTCATTCG | 1.07
29 | AGTACAGTAC | 1.05
30 | GTCTGGGAGC | 0.953
31 | CAGTTGTCGT | 0.95
32 | AAGGGGTTGT | 0.996
33 | TAAATTGTCT | 0.99
34 | TTGCCCAGGC | 1.11
35 | GCAATTCTAA | 1.13
36 | GATTGAGGGT | 0.994
37 | ATTTGAGCAT | 1.01
38 | GATCGCGGTA | 1.02
39 | AAGTTACCCT | 1.12
40 | TATATGGT | 1.04
41 | TAAGTATGCT | 0.982
42 | GGAGGGAAAC | 0.993
43 | GTTATTTCGT | 0.996
44 | ACTCGGTCAC | 1.24
45 | CGTGACGTGA | 1.01
46 | TTCAACTCGC | 1.8

Row | Sequence | switch fluorescence ratio
47 | TCACTTGTAC | 1.22
48 | ATGCACTATA | 1.07
49 | TACGCTGATA | 1.09
50 | TCTTGTAGGC | 1.08
51 | GCTAAGAAGT | 0.973
52 | CATAGACA | 1.07
53 | GTAATAGCGA | 0.98
54 | GTCGTTCATG | 0.995
55 | CCTTGTGCTC | 1.28
56 | AGGGGGACAA | 0.947
57 | GTGCCCATGA | 1.02
58 | CCGTTACGCG | 1.03
59 | ACGATTAAT | 1.06
60 | TAAGGTCGAA | 0.967
61 | ATGGTTCAGG | 0.958
62 | AGGTTCGCGG | 0.946
63 | TTGACTAGTC | 0.992
64 | TGAATATGAA | 1.02
65 | AGGGTCACGC | 1.01
66 | CATTTTGCAG | 1
67 | GCATAGATGT | 1.02
68 | CGGGGAGAG | 0.985
69 | AGAAGTTAGC | 0.998

Row | Sequence | switch fluorescence ratio
70 | ACGGTGAGTA | 0.994
71 | AAACCGAGCC | 2.28
72 | GTCGTTTAGA | 0.923
73 | AGTAAAACAG | 1.03
74 | TCGAAGCCGT | 1.02
75 | TACGTGTTCT | 1
76 | CGCCGTCGTC | 1.01
77 | TCTCAACGCG | 1.02
78 | AGACAAGCGG | 1.03
79 | TTCATACTGT | 1
80 | GAGTATTTAT | 0.991
81 | CTTGGTTGTG | 0.984
82 | TTGTATATTA | 1.01
83 | TGGGATACTC | 1.21
84 | GCGGCCTTAG | 1.01
85 | CCCGCGTGTG | 1.05
86 | ACATGGAGGC | 1.01
87 | GTCCGCGGCT | 1.03
88 | GCACTTGCCT | 1.04
89 | GTAATACTGG | 1.22
90 | GGTGTACGCT | 1.02
91 | CAAAGAATTG | 0.996
92 | CCCGCACGTT | 1.36

Row | Sequence | switch fluorescence ratio
93 | GGAGGCGATG | 0.948
94 | TCCAATTGCT | 1.05
95 | CTTAGTTTGT | 1.03
96 | AGGGGAGCGA | 1.07
97 | GGATCAGGCC | 0.958
98 | CCTAACGCCC | 2.73
99 | GGCTTTGATG | 0.987
100 | AAACGTCCGA | 1.18
101 | TCGGATACCA | 1.02
102 | ATATATCCAC | 1.05
103 | ACCGGCAAAT | 1.05
104 | CAATGGTTGG | 1.04
105 | CCCCTGGCCT | 1.09
106 | ACATTCTG | 1.02
107 | GGTTCGGCGT | 1.1
108 | GCTTTATAAT | 0.975
109 | TCTAGAATTG | 0.963
110 | TTTCTACTAA | 1.01
111 | AGGATTTGGA | 1.04
112 | AGTTGAATTA | 0.981
113 | TCGTACAG | 1.03
114 | CGGAATTTAC | 1.68
115 | GGTAAGGACC | 1

Row | Sequence | switch fluorescence ratio
116 | CATCTGCATC | 2.13
117 | GATTGTTAAG | 1.01
118 | TATGTCAACA | 0.975
119 | ACTGGTTGCC | 0.987
120 | ATAGTTTACG | 1.04
121 | ACTGAAGAGC | 0.884
122 | ACGAGTGCAG | 1.05
123 | CTGATTAAGG | 0.981
124 | ATAGTCGTGG | 0.982
125 | GACAAGCGAG | 1.03
126 | CTTATGTAGA | 1.08
127 | GTAAGACATC | 1.01
128 | GGGTATACGA | 1.02
129 | TGAGTTCATA | 0.98
130 | TTCAAATTCG | 1.03
131 | GGGCACTGCA | 1.01
132 | AAAAACAAGT | 1.01
133 | ATATACGGTG | 1.09
134 | CAAATGTGGC | 0.994
135 | CTCGGGGTG | 0.994
136 | AGGAGCTTA | 0.963
137 | TTGTAAATCT | 0.984
138 | GCACGCCTAA | 0.993

Row | Sequence | switch fluorescence ratio
139 | CAAAATAGAT | 1.01
140 | AATTACAAAG | 1.03
141 | GCAACGGTTT | 1
142 | ACAATTTATG | 0.986
143 | GTTGAAACCA | 0.993
144 | CATTCCACTG | 1.05
145 | AGCCTCCCAT | 1.34
146 | GCACCCCCTA | 1.31
147 | GCGTCAGCTT | 0.982
148 | TAGGGCAAGG | 0.992
149 | CACTTGTCAT | 0.986
150 | TAGTACGGTC | 0.98
151 | TTGTAACTGA | 0.992
152 | TATAACGGGG | 0.976
153 | TAAGCTAGCC | 1.07
154 | GCTTAACTAG | 1.01
155 | CTTTTTGTTC | 0.988
156 | GAAAAACAAG | 1.02
157 | CAGACGAGGG | 0.954
